Test results published in the supplement of paper PMC11417369.
± gives the standard deviation of the averaged measurements. Some of the results follow.

Test system: PfAP2-LT AP2 domain (GST-tagged)
Assay: gcPBM binding intensity (ln(normalized median fluorescence intensity)); higher = stronger DNA binding
Procedure, shortened: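 Each value is the highest Masliner-normalised natural-log median intensity across replicate spots of either orientation of a probe. The probes were primer-extended double-stranded 36-bp intergenic genomic sequences on an Agilent 4 × 180k array, alongside negative controls, exposed for 1 h to GST-tagged P. falciparum DNA-binding domains expressed in E. coli. Bound protein was picked up with Alexa488 anti-GST antibody and scanned at 488 nm.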

Sequence	gcPBM binding intensity (ln)
TAAAAATATAGGTATACACACATATAAATATAAATA [CACACA_site7785]	9.03 ± 0.49
GATTTTAAAATAATTACACACTTGATTATGTCCAAA [CACACA_site3491]	8.68 ± 0.4
ATAAATATAAATATATGTACATATATATATATATAT [XGTACX_site7433]	9.6 ± 0.13
TAAATATTTATAAACACACAAATATTTATATTTATA [CACACA_site6166]	8.53 ± 0.37
AAATAGAGAAATACAAGTACATATCAAACCAATCTA [XGTACX_site2756]	8.99 ± 0.38
AGGGACATATATATCACACACAAAAATTAGTCCCTT [CACACA_site2778]	9.39 ± 0.44
TTTATTTATTAATACACACACACACGCCCACAAAAT [CACACA_site6253]	9.995 ± 0.05
AAATATTACCATGTGAAAATTTTACTGCAACATGAA [TGCATGCA_negctrl_site609]	8.73 ± 0.45
TAAAAATTTACATGTTGTACATATAATTATATAATC [XGTACX_site4577]	8.56 ± 0.49
AGGCTGCCATATTATACACACATTTTTAAAAAAATT [CACACA_site3843]	8.77 ± 0.4
TAATTTTTTTTAATAACACACATATATATATATATA [CACACA_site813]	9.23 ± 0.19
ATAAAATGAAATATATATGTGTATGCTTAACTTGTT [CACACA_negctrl_site431]	8.8 ± 0.36
AAAGGATGTAATATAAACATATATATGTATATATAT [TGCATGCA_negctrl_site347]	9.02 ± 0.38
ATTGTTTTATATAGAACACACATAAAAATATATATG [CACACA_site1193]	8.78 ± 0.4
TAATATTCCTTTTTAACACACATATGAACAAATAAA [CACACA_site153]	8.53 ± 0.38
ATATTAAACAGACACACACACATATATTTATTTATA [CACACA_site7564]	9.71 ± 0.13
TGTATTATATAAAATTGTACATGCGAATTGTATAAC [XGTACX_site902]	8.71 ± 0.33
AAAATGAACTCACGAGCACACACACCCATATATATA [CACACA_site8247]	9.72 ± 0.25
TATAGCTATGTATTCACACATAATATAAACTTTAAT [CACACA_site5889]	8.73 ± 0.41
TAAAACAAAACAAAAATAGGATTATATTCCTTTTTT [CACACA_negctrl_site1003]	8.43 ± 0.46
ATAATTTCAATATTTAATATCATATATATATATTTT [GTGCAC_negctrl_site713]	8.62 ± 0.48
AAATAAAAAAATACCCAACACCATGCCAAATGTGAA [CACACA_negctrl_site411]	9.11 ± 0.38

Sequence	gcPBM binding intensity (ln)
ATATATATATATATATGTACATATGTGTATATAACT [XGTACX_site495]	9.45 ± 0.099
ACAAAATGTAAATAAACACACATATTTATATTTATA [CACACA_site6719]	8.94 ± 0.45
AATAAAATATTATGTGCATGCTGTTTTATTTATTAA [TGCATGCA_site102]	8.86 ± 0.3
TTGGTGGATAAATTTACACACAATAATTTTCGTTCA [CACACA_site467]	8.86 ± 0.38
AATTCACCAAAAAAAGTGCATATTCAATATATATTA	8.54 ± 0.47
ATCAACATTACATTTAGTACACATATATTTCTATGT [XGTACX_site4436]	9.26 ± 0.47
TAGTTAGGCCCTACATGTACATAATATATATTACTT [XGTACX_site1137]	9.16 ± 0.3
CTAATTAATATTTGTACACACATATTTAACCTACTA [CACACA_site3191]	9.1 ± 0.4
TATATAAGTATAAAATGTACATAAAATTTTATGTTA [XGTACX_site2613]	8.67 ± 0.44
TAAAATTCGAAAAATTGTACTATTTATATATCTGTA [XGTACX_site6478]	8.49 ± 0.49
AACTCTTAAAAATAAACATGCAAATATTTACCTTCT [TGCATGCA_site986]	8.61 ± 0.33
TATATATTATATATATGTACATAATTCCATGTTTAG [XGTACX_site3943]	8.71 ± 0.46
ATTTTTTTTTTTTTTTTTCATTTTTTTTTTTTTTTT [CACACA_negctrl_site1204]	8.62 ± 0.54
ATATTAAAGCCTTTTTGTACATATAAATAAACATAG [XGTACX_site4667]	8.57 ± 0.38
CTTGAAAGATTTTATTGTACTCATAAGATACATTTC [XGTACX_site3178]	8.56 ± 0.42
TCATACAATATTAAATGTACATATATATATATATAT [XGTACX_site8828]	9.6 ± 0.42
TTGAAAATAATATGAAGTACATTATTTTTTTTTAAT [XGTACX_site4499]	8.37 ± 0.47
AAAAATATTTAAAATACACACATATATATAATATAT [CACACA_site2006]	8.89 ± 0.42
AAAACTTTCCATGTTTGTACATAAAATATAATAATT [XGTACX_site2716]	8.49 ± 0.42
TTTTTTTTCTTTTTTTTTTTTTCAAAAGCTTATAAT [CACACA_negctrl_site1526]	8.15 ± 0.5
GTGTATTTGGTGCGCACACACATGCAAAAAGAAATA [CACACA_site4768]	9.52 ± 0.43
TGTATAATCATATATACACACACATATATATATATA [CACACA_site8674]	9.71 ± 0.19
